Data published in PubChem BioAssay AID686979 (National Center for Advancing Translational Sciences (NCATS), 2013).
Where “and” joins values, the source holds several entries; their conditions need not be identical. Equal entries are not always repeated. Out of some 420,000 compounds screened, about 50,000 (12%) were called active. The shares of active, inactive and inconclusive entries below differ from those in the screen. The call rests on the fitted dose curve; in most records, active means well fitted inhibition curve with a large enough effect; inconclusive means small, poorly fitted or top-dose-only effect; inactive means flat fitted curve, though single readings scatter. Potencies of inconclusive entries are left out as doubtful fits.

experiment: qHTS for Inhibitors of human tyrosyl-DNA phosphodiesterase 1 (TDP1): qHTS in cells in presence of CPT; settings: chicken DT40 Tdp1-/-;hTDP1 cells + 20 nM CPT, ATP luminescence, 48 h; activity change, negative = growth inhibition: at 46.2 µM (top of the series); further: nearly all actives have a fitted effect of over 55% in size
Summary of the method: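 Chicken DT40 Tdp1-/- cells stably complemented with human TDP1 were seeded at 400 cells/well in medium containing 20 nM camptothecin, exposed to pin-transferred compounds, and grown at 37 °C for at least 48 hr. Viability was read as ATP luminescence.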
On the % scale 0 is the no-effect control and ±100 the full control effect; potency means the concentration at half of the fitted maximal effect; tags describe the fitted curve by direction and shape.

| SMILES | Potency | activity change, negative = growth inhibition |
| --- | --- | --- |
| CCOC(=O)c1c(-c2ccccc2)oc2ccc(OCC(O)CNCCN(C)C)cc12 (stereo not drawn) | active: 16.4 µM |  |
| COc1ccc(CCn2c(SCC(=O)Nc3cc(C)on3)nc3ccsc3c2=O)cc1OC | inconclusive [inhibitor, partial curve] |  |
| O=C1C=C(c2cccc(Br)c2)C[C@@H](c2ccc(Cl)cc2)C1 | active: 16.4 µM |  |
| Cc1cccc(N2CCN(c3nnnn3-c3ccccc3)CC2C)c1 (stereo not drawn) | inconclusive [inhibitor, single point] |  |
| CNc1ccc(-c2nc(-c3ccncc3)no2)cc1[N+](=O)[O-] | inactive |  |
| COc1cc(NC(=O)c2cc(-c3cc(F)ccc3OC(C)C)n[nH]2)cc(OC)c1OC | inconclusive [inhibitor, single point] |  |
| C=CCOc1c(Br)cc(CNc2ccc(NC(=O)CCC)cc2)cc1OCC | inconclusive [inhibitor, single point] |  |
| Cc1ccc(C)c(NC(=O)c2nc(Cl)ccc2Cl)c1 | inactive |  |
| CC(=O)Nc1ccc(CN(C)c2c(C)nc3ccc(C(=O)N(C)Cc4ccccc4)cn23)cc1 | inconclusive [inhibitor, single point] |  |
| CCN(CC(=O)Nc1ccc(NC(C)=O)cc1)C(=O)CN1C(=O)NC2(CCCC2)C1=O | inactive |  |
| Cc1cc2c(c(-c3ccc(Cl)cc3)c1)OC(CNC(=O)CCC(=O)N(C)C)C2 (stereo not drawn) | inconclusive [inhibitor, single point] |  |
| O=C(OCCc1cc2ccccc2c(=O)o1)c1ccccc1C(F)(F)F | inconclusive [inhibitor, single point] |  |
| CSc1ccc(OC2(C)CCN(Cc3ccc4c(c3)OCCO4)C2)cc1 (stereo not drawn) | active: 25.9 µM |  |
| Cc1cc(OCCCCN2C(=O)NC(C)(C)C2=O)cc(C)c1Cl | inconclusive [inhibitor, single point] |  |
| CCOC(=O)C[n+]1c(C)csc1C | inactive |  |
| C[C@]12C(=O)N(c3ccc(C(F)(F)F)cc3)C(=O)N1[C@@H]1c3ccccc3OC[C@@H]1[C@H]2c1ccccc1 | active: 23.1 µM |  |
| CCCNC(=O)c1cc(Cl)c(NC(=O)C2=CSCCO2)cc1OC | inconclusive [inhibitor, single point] |  |
| COc1ccccc1C1C(C(=O)c2ccco2)=C(O)C(=O)N1c1cc(C)on1 (stereo not drawn) | inconclusive [inhibitor, single point] |  |
| Cc1c(CN2CCC(n3nccc3NC(=O)CCc3ccccc3)CC2)cnn1C | inactive |  |
| Cc1ccc(CN2CCC(Oc3cccc(C(=O)N(C)CCN(C)C)c3)CC2)cc1C | inconclusive [inhibitor, single point] |  |
| Cc1sc2ccccc2[n+]1CCCCI | inconclusive [inhibitor, single point] |  |
| Brc1cnc(N2CCOCC2)nc1N1CCCCC1 | inconclusive [inhibitor, full curve] |  |
| COc1ccc(CNC(=O)CCc2c(C)nc3cc(-c4ccc(OC)cc4OC)nn3c2C)cc1 | inconclusive [inhibitor, partial curve] |  |
| Cn1c(=O)n(C)c2cc([N+](=O)[O-])c(N3CCN(S(C)(=O)=O)CC3)cc21 | inactive |  |
| CC1CCN(Cc2nc3c(c(=O)n(C)c(=O)n3C)n2CCc2ccccc2)CC1 | inconclusive [inhibitor, partial curve] |  |

| SMILES | Potency | activity change, negative = growth inhibition |
| --- | --- | --- |
| CC1Oc2ccccc2N(CC(=O)c2ccccc2)C1=O (stereo not drawn) | inconclusive [inhibitor, partial curve, poor fit] |  |
| OCCCNc1cc(-c2ccnc(Nc3cccc(Cl)c3)n2)ccn1 | active: 0.146 µM |  |
| Cc1ccc(CNC(=O)Cn2nnc(C(=O)Nc3cc(C)ccc3C)c2N)cc1 | inactive |  |
| OC1C(Br)=Cc2ccccc21 (stereo not drawn) | inconclusive [inhibitor, single point] |  |
| COc1ccc2c(c1OC)C(=O)NC(C)=C(C(=O)OC(C)(C)C)C2O (stereo not drawn) | inactive |  |
| COCCNc1nc(NCCOC)c2sc(-c3ccccc3)cc2n1 | active: 25.9 µM |  |
| Cc1nnc(-c2cnn(-c3ccccc3)c2N)n1Cc1ccc(F)cc1 | inactive |  |
| Fc1ccc(-c2cc(-c3ccc(F)cc3)c3c(n2)-c2cc(F)ccc2OC3)cc1 | inconclusive [inhibitor, partial curve] |  |
| Cc1ccc(-c2nnc(N3CC(C)OC(C)C3)c3ccccc23)cc1 (stereo not drawn) | active: 29.1 µM |  |
| O=Cc1cc(Cl)ccc1OCCN1CCC(Cc2ccccc2)CC1 | inconclusive [inhibitor, single point] |  |
| O=S(=O)(NC1CC(NS(=O)(=O)OCC(Cl)(Cl)Cl)C2CCCCC12)OCC(Cl)(Cl)Cl (stereo not drawn) | active: 14.6 µM |  |
| CCCCCCCSc1nsc(N)n1 | inconclusive [inhibitor, single point] |  |
| CC(NC(=O)c1ccccc1NS(=O)(=O)c1ccc(CCC(=O)O)cc1)c1ccccc1 (stereo not drawn) | inactive |  |
| Cc1cccc(NC(=O)Cn2c(=O)n(CC3CCC(C(=O)NCCc4ccccc4)CC3)c(=O)c3ccccc32)c1 (stereo not drawn) | active: 18.4 µM |  |
| Nc1ncc2c(n1)-c1ccoc1CC2 | inactive |  |
| CCN1CCN(C2=CC3=CC(=C(C#N)C#N)CCC3CC2)CC1 (stereo not drawn) | inconclusive [inhibitor, partial curve] |  |
| Cc1cccc(N(Cc2cc(=O)[nH]c3ccccc23)C(=O)CCl)c1 | active: 4.11 µM |  |
| CCN(CC)S(=O)(=O)c1ccc(Cl)c(NC(=O)c2ccncc2)c1 | inactive |  |
| CCOC(=O)c1cc(-c2ccc(F)cc2)n(CCC(=O)NC2CCC(C)CC2)c1C (stereo not drawn) | inconclusive [inhibitor, single point] |  |
| CNC(=S)N1N=C(c2ccc(OC)cc2)CC1c1ccc(N(C)C)cc1 (stereo not drawn) | inconclusive [inhibitor, single point] |  |
| Nc1c(C(=O)N/N=C/c2ccc(F)cc2)oc2nc(-c3ccccc3)cc(-c3ccco3)c12 | active: 23.1 µM |  |
| O=C(COC(=O)/C=C/c1nc2ccccc2s1)Nc1ccccc1Oc1ccccc1 | inconclusive [inhibitor, single point] |  |
| CN(C)c1ccc(-c2cncnc2N(C)Cc2ccco2)cc1 | inconclusive [inhibitor, single point] |  |
| COc1ccccc1-c1ccc2ncnc(Nc3ccccc3)c2c1 | active: 20.6 µM |  |
| CCc1ccc(NC(=O)CSc2nc(-c3ccc(C)cc3)nc3c2Cc2c(CO)cnc(C)c2O3)cc1 | inactive |  |

| SMILES | Potency | activity change, negative = growth inhibition |
| --- | --- | --- |
| Cc1cc(S(=O)(=O)n2[nH]c(=O)c(CCO)c2C)c(Cl)cc1Cl | active: 16.4 µM |  |
| COCCn1c(SC(C)C(=O)Nc2ccc3c(c2)OCCO3)nc2ccccc2c1=O (stereo not drawn) | inconclusive [inhibitor, single point] |  |
| CCc1ccc(-c2nc3cc(NC(=O)c4ccc(C)c(C)c4)ccc3o2)cc1 | inconclusive [inhibitor, partial curve] |  |
| COc1ccc(-n2ncc3c2CC(C)(C)CC3NC(=O)C2CCN(C(C)=O)CC2)cc1 (stereo not drawn) | inactive |  |
| COc1cccc(OC)c1CN1CCCC(C(=O)c2ccccc2SC)C1 (stereo not drawn) | active: 16.4 µM |  |
| CC1Cc2ccccc2N1C(=O)c1ccc(F)c(S(=O)(=O)N2CCOCC2)c1 (stereo not drawn) | inconclusive [inhibitor, single point] |  |
| Cc1nn2c3c(cnc2c1-c1ccc(Cl)cc1)C(=O)CC(c1ccco1)C3 (stereo not drawn) | inconclusive [inhibitor, single point] |  |
| COc1ccccc1NS(=O)(=O)c1cccc(C(=O)N/N=C/c2ccc3c(c2)OCCO3)c1 | inactive |  |
| CC1=C(C(=O)N2CCCCCC2)CC(CC(=O)NCC2CCCCC2)C(=O)N1Cc1ccccc1 (stereo not drawn) | inconclusive [inhibitor, single point] |  |
| CCCCCCCCN1C(=O)N(C)C(N(O)C(=O)NC)C1(C)C (stereo not drawn) | inconclusive [inhibitor, single point] |  |
| CCN(CC)c1ccc(S(=O)(=O)N2CCOCC2)cc1NC(=O)CNCc1cccc(Cl)c1 | active: 18.4 µM |  |
| CCOc1ccc(NC(=O)c2nc(S(=O)(=O)Cc3ccccc3F)ncc2Cl)cc1 | active: 708 nM and active: 366 nM |  |
| O=C(COC(=O)c1ccc([N+](=O)[O-])o1)Nc1ccc(Br)cc1F | inconclusive [inhibitor, single point] |  |
| CC(=O)c1ccc(OCCCC(=O)NC2CCCc3ccccc32)cc1 (stereo not drawn) |  | inconclusive: -31.4% [inhibitor] |
| N#C/C(=C\c1ccc(N2CCOCC2)o1)c1nc2ccccc2[nH]1 | inconclusive [inhibitor, single point] |  |
| COc1ccc(S(=O)(=O)n2nc(-c3ccco3)nc2NCc2ccc(C(C)C)cc2)cc1 | active: 18.4 µM |  |
| CCN(CC)C(=O)c1ccc(C(=O)c2c(C)cc(C)cc2C)cc1 | active: 18.4 µM |  |
| Nc1ccc(-n2c(N)c(C(=O)NCc3ccc4c(c3)OCO4)c3nc4ccccc4nc32)cc1 | inconclusive [inhibitor, partial curve] |  |
| COc1ccc(OC)c(/C=C/C(=O)OCC(=O)Nc2nnc(-c3ccccc3)o2)c1 | inactive |  |
| CCOP(=O)(c1ccc(N(C)C)cc1)C(O)c1cccnc1 (stereo not drawn) | inactive |  |
| Cc1c(C(=O)NCc2ccc(C(C)C)cc2)sc(=O)n1Cc1cccc(F)c1 | inconclusive [inhibitor, single point] |  |
| Cc1cc2oc(=O)cc(CN3CCCCCCC3)c2cc1Cl | inconclusive [inhibitor, single point] |  |
| COc1ccc(CN=Cc2[nH]c3ccc(Br)c(Cl)c3c2O)cc1 | inconclusive [inhibitor, single point] |  |
